From patent EP4603109A1 (Sichuan Kelun-Biotech Biopharmaceutical Co., Ltd., dated 2024)

What was measured:
[1] = target: T1, human C1q (human, UniProt P02745; P02746; P02747, biotinylated (sites not given)); test: BLI (ForteBio), biotinylated C1q on SA sensor
T1 construct: Biotinylated protein captured on SA sensor

[2] = target: T2, human FcRn (human, UniProt P55899 in part, biotinylated (sites not given)); test: BLI (ForteBio), biotinylated FcRn on SA sensor, antibody from 5000 nM, 1:1 global fit
T2 construct: Biotinylated protein captured on SA sensor
T2 sequence (P55899 24-297 limits assumed, form in doubt): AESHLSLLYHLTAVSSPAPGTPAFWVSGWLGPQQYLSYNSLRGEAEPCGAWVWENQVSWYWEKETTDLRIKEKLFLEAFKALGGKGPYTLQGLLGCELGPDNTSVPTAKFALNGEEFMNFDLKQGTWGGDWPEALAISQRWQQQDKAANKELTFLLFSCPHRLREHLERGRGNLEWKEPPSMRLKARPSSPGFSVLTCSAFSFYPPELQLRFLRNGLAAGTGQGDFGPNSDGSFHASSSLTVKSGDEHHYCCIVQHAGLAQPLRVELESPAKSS

[3] = target: T3, rat B7-H3-his protein (rat, UniProt Q7TPB4 29-248, limits assumed); test: BLI (ForteBio), antibody captured on Protein A sensor
T3 construct: not shown: His tag
T3 sequence (looked up): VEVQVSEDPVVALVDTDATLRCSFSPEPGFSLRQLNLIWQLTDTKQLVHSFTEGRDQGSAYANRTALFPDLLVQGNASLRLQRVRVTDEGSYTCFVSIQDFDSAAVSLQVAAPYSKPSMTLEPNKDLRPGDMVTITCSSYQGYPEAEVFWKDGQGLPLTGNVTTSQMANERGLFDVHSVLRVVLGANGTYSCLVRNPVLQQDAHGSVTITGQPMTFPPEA

[4] = target: T4, human B7-H3-4Ig on CHO-S cells (human, UniProt Q5ZPR3 29-534); test: flow cytometry on CHOS-human B7-H3-4Ig cells
T4 construct: whole, on cells; also called CHO-S-human B7-H3-4Ig; CHOS-human B7-H3-4Ig
T4 sequence (looked up): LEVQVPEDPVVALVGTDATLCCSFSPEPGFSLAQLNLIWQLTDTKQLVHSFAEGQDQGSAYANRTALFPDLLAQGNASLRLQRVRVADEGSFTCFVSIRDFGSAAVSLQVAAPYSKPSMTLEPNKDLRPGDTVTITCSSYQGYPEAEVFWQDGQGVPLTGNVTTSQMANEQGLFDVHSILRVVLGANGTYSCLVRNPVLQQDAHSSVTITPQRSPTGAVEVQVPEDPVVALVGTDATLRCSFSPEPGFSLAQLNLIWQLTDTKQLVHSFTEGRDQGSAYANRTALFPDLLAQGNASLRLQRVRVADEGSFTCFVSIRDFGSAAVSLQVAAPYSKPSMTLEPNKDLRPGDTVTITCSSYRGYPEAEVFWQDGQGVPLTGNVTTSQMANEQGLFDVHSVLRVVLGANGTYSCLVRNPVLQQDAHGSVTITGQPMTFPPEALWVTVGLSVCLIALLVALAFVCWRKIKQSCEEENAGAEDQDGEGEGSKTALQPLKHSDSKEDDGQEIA

[5] = target: T5, human Fc receptor protein CD32a (human, UniProt P12318 36-218, limits assumed, biotinylated (sites not given)); test: BLI (ForteBio), biotinylated receptor on SA sensor
T5 construct: Biotinylated protein captured on SA sensor
T5 sequence (looked up): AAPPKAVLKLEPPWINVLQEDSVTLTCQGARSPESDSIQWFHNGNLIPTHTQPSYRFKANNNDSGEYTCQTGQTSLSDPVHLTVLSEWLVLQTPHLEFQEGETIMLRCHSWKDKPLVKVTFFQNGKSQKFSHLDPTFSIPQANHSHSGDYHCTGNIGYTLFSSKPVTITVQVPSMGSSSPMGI

[6] = target: T6, human Fc receptor protein CD16a (human, UniProt P08637 in part, biotinylated (sites not given)); test: BLI (ForteBio), biotinylated receptor on SA sensor
T6 construct: Biotinylated protein captured on SA sensor
T6 sequence (P08637 17-208 limits assumed): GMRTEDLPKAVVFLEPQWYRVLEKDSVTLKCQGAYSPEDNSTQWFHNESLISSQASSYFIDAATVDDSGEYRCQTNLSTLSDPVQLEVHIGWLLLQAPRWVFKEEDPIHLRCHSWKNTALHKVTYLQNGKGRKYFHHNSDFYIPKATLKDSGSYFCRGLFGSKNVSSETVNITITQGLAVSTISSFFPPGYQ

[7] = target: T7, human Fc receptor protein CD32b (human, UniProt P31994 46-217, limits assumed, biotinylated (sites not given)); test: BLI (ForteBio), biotinylated receptor on SA sensor
T7 construct: Biotinylated protein captured on SA sensor
T7 sequence (looked up): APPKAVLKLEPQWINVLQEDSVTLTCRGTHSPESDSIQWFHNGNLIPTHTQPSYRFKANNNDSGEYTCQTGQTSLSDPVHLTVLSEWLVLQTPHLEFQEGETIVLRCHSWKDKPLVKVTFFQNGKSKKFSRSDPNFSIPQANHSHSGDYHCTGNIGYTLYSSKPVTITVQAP

[8] = target: T8, B7-H3 on human tumor cell lines (HT29, NCI-N87, HCC1806, HCC827, A375) (human, UniProt Q5ZPR3 29-534); test: flow cytometry on HCC1806 cells
T8 construct: whole, on cells
T8 sequence (looked up): T4 sequence (looked up)

[9] = target: T8, B7-H3 on human tumor cell lines (HT29, …); test: flow cytometry on NCI-N87 cells
[10] = target: T9, human B7-H3-2Ig-his protein (human, UniProt Q5ZPR3-2 29-245, limits assumed); test: BLI (ForteBio), antibody on Protein A sensor, antigen 200-3.125 nM, 1:1 global fit
T9 construct: the 2Ig form is its isoform 2; not shown: His tag
T9 sequence (looked up): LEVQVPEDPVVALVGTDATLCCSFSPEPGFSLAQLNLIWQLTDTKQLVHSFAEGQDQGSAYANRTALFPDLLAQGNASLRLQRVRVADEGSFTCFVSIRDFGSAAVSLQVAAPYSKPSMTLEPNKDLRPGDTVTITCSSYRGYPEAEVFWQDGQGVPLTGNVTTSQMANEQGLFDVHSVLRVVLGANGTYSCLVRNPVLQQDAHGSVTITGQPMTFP

[11] = target: monkey B7-H3-his protein (monkey); test: as above
[12] = target: T10, human B7-H3-4Ig-his protein (human, UniProt Q5ZPR3 29-461, limits assumed); test: as above
T10 construct: not shown: His tag
T10 sequence (looked up): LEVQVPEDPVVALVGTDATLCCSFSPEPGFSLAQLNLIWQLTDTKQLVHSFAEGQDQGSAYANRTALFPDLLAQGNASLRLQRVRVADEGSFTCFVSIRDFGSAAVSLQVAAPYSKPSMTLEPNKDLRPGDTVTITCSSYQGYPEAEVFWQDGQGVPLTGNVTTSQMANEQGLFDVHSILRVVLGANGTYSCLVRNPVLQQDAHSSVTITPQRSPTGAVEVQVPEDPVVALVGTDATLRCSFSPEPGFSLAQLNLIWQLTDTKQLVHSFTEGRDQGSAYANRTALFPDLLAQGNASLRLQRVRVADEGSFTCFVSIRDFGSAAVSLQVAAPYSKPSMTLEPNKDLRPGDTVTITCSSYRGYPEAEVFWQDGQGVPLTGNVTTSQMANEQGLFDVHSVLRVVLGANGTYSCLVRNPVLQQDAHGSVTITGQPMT

[13] = target: T11, monkey B7-H3 on CHO-S cells (monkey); test: flow cytometry on CHOS-monkey B7-H3 cells
T11 construct: whole, on cells; also called CHO-S-monkey B7-H3; CHOS-monkey B7-H3

T1 sequence (P02745 23-245 limits assumed, chain 1 of 3): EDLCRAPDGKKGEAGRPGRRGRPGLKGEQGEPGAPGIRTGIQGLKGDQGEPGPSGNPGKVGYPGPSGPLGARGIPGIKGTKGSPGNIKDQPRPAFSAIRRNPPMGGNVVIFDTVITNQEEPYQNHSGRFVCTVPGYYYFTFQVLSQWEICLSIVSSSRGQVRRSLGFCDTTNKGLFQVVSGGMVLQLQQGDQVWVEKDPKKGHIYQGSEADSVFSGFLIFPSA
T1 sequence (P02746 28-253 limits assumed, chain 2 of 3, further chain): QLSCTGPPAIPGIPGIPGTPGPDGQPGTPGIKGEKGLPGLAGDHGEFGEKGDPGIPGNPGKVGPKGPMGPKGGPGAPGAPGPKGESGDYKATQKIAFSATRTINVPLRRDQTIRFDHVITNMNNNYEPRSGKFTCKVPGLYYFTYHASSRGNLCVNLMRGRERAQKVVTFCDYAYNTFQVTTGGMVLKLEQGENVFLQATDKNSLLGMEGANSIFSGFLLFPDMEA
T1 sequence (P02747 29-245 limits assumed, chain 3 of 3, further chain): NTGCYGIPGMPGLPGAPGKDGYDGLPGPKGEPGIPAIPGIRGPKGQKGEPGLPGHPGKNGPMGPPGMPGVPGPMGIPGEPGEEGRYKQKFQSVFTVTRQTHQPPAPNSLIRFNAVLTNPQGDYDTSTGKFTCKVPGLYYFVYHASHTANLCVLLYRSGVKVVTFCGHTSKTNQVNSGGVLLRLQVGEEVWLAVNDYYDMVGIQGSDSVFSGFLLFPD

B1: fully human anti-B7-H3 antibody 2#8890 (antibody, human IgG1, kappa)
heavy: QVQLQESGPGLVQPSGTLSLTCAVSGGSDSSTNWWTWVRQSPGQGLEWIGEISPIGFTSYSPSLRSRVTISVDKSKTQFSLKLSSVTAADTAVYYCARDRLYFAFWGQGTLVTVSSASTKGPSVFPLAPSSKSTSGGTAALGCLVKDYFPEPVTVSWNSGALTSGVHTFPAVLQSSGLYSLSSVVTVPSSSLGTQTYICNVNHKPSNTKVDKKV[human IgG1 Fc with L234A L235A G237A (EU numbers) left out here]
light: EIVMTQSPATLSVSPGERATLSCRASQSVSSNLAWYQQKPGQAPRLLIYGASTRATGIPDRFSGSGSGTEFTLTISSLESEDFAVYYCQQYNNWPITFGQGTRLEIKRTVAAPSVFIFPPSDEQLKSGTASVVCLLNNFYPREAKVQWKVDNALQSGNSQESVTEQDSKDSTYSLSSTLTLSKADYEKHKVYACEVTHQGLSSPVTKSFNRGEC
notes: expressed in CHO-S, Protein A purified
- binding result [1]: no binding (tested: 5000 nM (highest concentration))
- Kd [2]: 17.3 nM
- binding result [3]: no binding (tested: 200 nM (highest antigen concentration))
- EC50 [4]: 0.115 µg/mL
- binding result [5]: no binding (tested: 5000 nM (highest concentration))
- binding result [6]: no binding (tested: 5000 nM (highest concentration))
- binding result [7]: no binding (tested: 5000 nM (highest concentration))
- EC50 [8]: 0.00967 µg/mL
- EC50 [9]: 0.00577 µg/mL
- Kd [10]: 18.3 nM
- Kd [11]: 1.24 nM
- Kd [12]: 0.783 nM
- EC50 [13]: 0.0649 µg/mL
